The whole screen tested about 310,000 compounds, of which about 14,000 (4.5%) showed an effect of 50% or more. The effect is printed as a negative number. The list shows a part of the results.

We go through 24 compounds from PMC4336329 (PLoS ONE, 2015).
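Further: peak tail current of the secondary pulse compared with the same well before compound.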

Sequence of human ether-à-go-go-related gene (hERG) potassium channel (Q12809 whole entry, looked up): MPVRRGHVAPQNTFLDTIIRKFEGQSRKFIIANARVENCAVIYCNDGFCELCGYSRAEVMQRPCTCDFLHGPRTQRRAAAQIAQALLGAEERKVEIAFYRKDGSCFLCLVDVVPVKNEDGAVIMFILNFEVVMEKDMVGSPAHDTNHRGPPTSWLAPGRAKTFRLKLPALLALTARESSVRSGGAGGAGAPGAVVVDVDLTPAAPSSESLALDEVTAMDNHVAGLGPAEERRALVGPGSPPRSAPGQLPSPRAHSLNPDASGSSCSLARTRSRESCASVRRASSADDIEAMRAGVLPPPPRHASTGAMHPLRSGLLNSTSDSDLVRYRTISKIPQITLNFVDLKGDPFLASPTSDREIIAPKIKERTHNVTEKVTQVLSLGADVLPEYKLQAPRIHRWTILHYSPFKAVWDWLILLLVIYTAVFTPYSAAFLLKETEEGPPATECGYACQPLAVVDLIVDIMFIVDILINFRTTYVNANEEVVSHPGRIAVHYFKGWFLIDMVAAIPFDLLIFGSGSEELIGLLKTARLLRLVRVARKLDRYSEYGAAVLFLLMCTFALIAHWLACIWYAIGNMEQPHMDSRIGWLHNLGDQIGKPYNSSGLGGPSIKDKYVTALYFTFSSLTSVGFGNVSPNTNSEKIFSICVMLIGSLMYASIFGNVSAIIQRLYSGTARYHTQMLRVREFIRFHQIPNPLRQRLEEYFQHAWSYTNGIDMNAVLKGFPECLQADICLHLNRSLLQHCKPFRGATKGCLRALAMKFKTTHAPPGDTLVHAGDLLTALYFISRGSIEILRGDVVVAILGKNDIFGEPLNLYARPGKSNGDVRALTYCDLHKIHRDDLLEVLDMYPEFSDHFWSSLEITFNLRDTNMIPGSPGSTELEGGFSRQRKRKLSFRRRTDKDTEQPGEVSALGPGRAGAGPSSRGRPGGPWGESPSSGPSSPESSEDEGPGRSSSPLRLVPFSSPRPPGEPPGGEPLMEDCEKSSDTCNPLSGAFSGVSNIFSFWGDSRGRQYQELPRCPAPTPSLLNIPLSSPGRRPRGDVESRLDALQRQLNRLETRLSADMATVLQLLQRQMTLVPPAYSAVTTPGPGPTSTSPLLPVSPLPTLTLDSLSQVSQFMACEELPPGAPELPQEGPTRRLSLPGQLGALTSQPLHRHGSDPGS

The assay has as its target human ether-à-go-go-related gene (hERG) potassium channel (human, UniProt Q12809). Kind of assay: primary screen, population patch clamp on CHO cells stably expressing hERG.
In the case of `Cc1cccc(C(=O)Nc2cccc(C(=O)N/N=C/c3ccc4c(c3)OCO4)c2)c1`, the “hERG current change (%, negative = inhibition) at 10uM” value is recorded as -2.89%.

As for `NC(=O)C1CCN(c2ccc(C(F)(F)F)cc2[N+](=O)[O-])CC1`, the “hERG current change (%, negative = inhibition) at 10uM” value was -20.1%.

Take `O=C(Nc1cccc(C(F)(F)F)c1)C(SCCO)c1ccccc1` (stereo not drawn): the “hERG current change (%, negative = inhibition) at 10uM” value was -4.8%.

On to `CN(C)C(=O)NC(NC(=S)Nc1ccccc1)C(Cl)(Cl)Cl` (stereo not drawn), for which the “hERG current change (%, negative = inhibition) at 10uM” value is reported as 0.0812%.

As to `CC(=O)NC1(C2CCCCC2=O)CCCCC1` (stereo not drawn), the “hERG current change (%, negative = inhibition) at 10uM” value amounted to 13.7%.

Regarding `CS(=O)(=O)N(Cc1ccc(C(=O)NC2CCCCC2O)cc1)c1ccccc1` (stereo not drawn), the “hERG current change (%, negative = inhibition) at 10uM” value is listed as -0.463%.

For `O=C(Nc1ccc(Cl)cc1F)C1CC1`, the “hERG current change (%, negative = inhibition) at 10uM” value is recorded as -1.77%.

Consider `CCOC(=O)N1CCN(C(=O)C2CCN(C(=O)c3cc(OC)cc(OC)c3)CC2)CC1`, for which the “hERG current change (%, negative = inhibition) at 10uM” value is on record as -13.5%.

For the compound `C[C@H](NC(=O)CCn1nnc2ccccc2c1=O)C(=O)O`, the “hERG current change (%, negative = inhibition) at 10uM” value was found to be 1.71%.

Regarding `Cc1cc(Br)ccc1OCC(=O)NC1CCCC1`, the “hERG current change (%, negative = inhibition) at 10uM” value is reported as -1.99%.

Turning to `O=C(CSc1nnnn1-c1ccc(O)cc1)Nc1ccc(N2CCOCC2)c(Cl)c1`, the “hERG current change (%, negative = inhibition) at 10uM” value is -1.58%.

Consider `CCN(CCCNC(=O)C1c2ccccc2C(=O)N(CCOC)C1c1ccc(F)cc1)Cc1ccccc1` (stereo not drawn), for which the “hERG current change (%, negative = inhibition) at 10uM” value was -35%.

Regarding `Cc1c(C=O)c2ccccc2n1CCOc1ccccc1`, the “hERG current change (%, negative = inhibition) at 10uM” value was 1.61%.

For the compound `CC(Sc1ncn[nH]1)C(=O)c1c(N)n(C)c(=O)n(C)c1=O` (stereo not drawn), the “hERG current change (%, negative = inhibition) at 10uM” value came to 10.9%.

With `O=C(Cc1ccc(F)cc1)N1CCN=C1SCc1ccc([N+](=O)[O-])cc1`, the “hERG current change (%, negative = inhibition) at 10uM” value is reported as -47.3%.

`COc1ccc(Cl)cc1NC(=O)CCS(=O)(=O)c1ccc(C)cc1`: the “hERG current change (%, negative = inhibition) at 10uM” value was determined as 3.76%.

Regarding `O=C(NCC1CCCO1)C(c1cccs1)N(C(=O)c1ccc(CN2CCOCC2)o1)c1ccc(Cl)cc1` (stereo not drawn), the “hERG current change (%, negative = inhibition) at 10uM” value was found to be 6.38%.

For `Cc1cc2nc3n(c2cc1C)CC1CC(C(=O)NCc2ccco2)N(C)C31` (stereo not drawn), the “hERG current change (%, negative = inhibition) at 10uM” value is reported as -29%.

For the compound `Cn1c(=O)c2c(ncn2CC(=O)OCC(=O)c2ccc(F)c(F)c2)n(C)c1=O`, the “hERG current change (%, negative = inhibition) at 10uM” value was -25.1%.

In the case of `CCN(CC)S(=O)(=O)c1ccc(C(=O)Nc2ccc3c(c2)OCCO3)cc1`, the “hERG current change (%, negative = inhibition) at 10uM” value is -13.7%.

In the case of `COc1ccc2c(CC(=O)OCC(=O)Nc3ccc(S(N)(=O)=O)cc3)coc2c1`, the “hERG current change (%, negative = inhibition) at 10uM” value is 6.45%.

Consider `CCOc1ccc(OCCCC(=O)NCCc2ccc(OC)cc2)cc1`, for which the “hERG current change (%, negative = inhibition) at 10uM” value is 25.8%.

As for `CCCn1c(=O)c(C(=O)Nc2cccc(C)n2)c(O)c2ccccc21`, the “hERG current change (%, negative = inhibition) at 10uM” value stood at 25%.

Consider `CCN(CC)CCCN1C(=O)C(O)=C(C(=O)c2ccc(C)o2)C1c1ccc(C)o1` (stereo not drawn), for which the “hERG current change (%, negative = inhibition) at 10uM” value is recorded as 19%.
